# Measurements published in the supplement of paper PMC8728848.
# The list shows a part of the results.
# Experiments:
# Experiment in all cases: glycan array binding signal (z-score within array); higher = stronger binding
# Details in all cases: glycan notation: IUPAC condensed, linker removed
# [1] = molecular target: Neu5Ac(a2-3)Gal(b1-4)GlcNAc(b1-3)Gal(b1-4)GlcNAc(b1-3)Gal(b1-4)GlcNAc(b1-2)Man(a1-3)[Neu5Ac(a2-3)Gal(b1-4)GlcNAc(b1-3)Gal(b1-4)GlcNAc(b1-3)Gal(b1-4)GlcNAc(b1-2)Man(a1-6)]GalNAc
# Outline: (§1)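 The Consortium for Functional Glycomics database supplied 3228 glycan arrays, of which those lacking an available protein sequence were dropped. The binding signal, a within-array Z-score, was averaged across arrays of the same protein sequence and across linkers. Negative scores can be read as non-binding.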
# [2] = molecular target: Neu5Ac(a2-3)Gal(b1-4)GlcNAc(b1-3)Gal(b1-4)GlcNAc(b1-3)GalNAc
# Outline: as §1
# [3] = molecular target: Neu5Ac(a2-3)Gal(b1-4)GlcNAc(b1-3)Gal(b1-4)GlcNAc(b1-3)[Neu5Ac(a2-3)Gal(b1-4)GlcNAc(b1-3)Gal(b1-4)GlcNAc(b1-6)]GalNAc
# Outline: as §1
# [4] = molecular target: Neu5Ac(a2-3)Gal(b1-4)GlcNAc(b1-3)Gal(b1-4)GlcNAc(b1-6)[Gal(b1-3)]GalNAc
# Outline: as §1
# [5] = molecular target: Neu5Ac(a2-3)Gal(b1-4)GlcNAc(b1-3)Gal(b1-4)[Fuc(a1-3)]GlcNAc
# Outline: as §1
# [6] = molecular target: Neu5Ac(a2-3)Gal(b1-4)GlcNAc(b1-3)GalNAc
# Outline: as §1
# [7] = molecular target: Neu5Ac(a2-3)Gal(b1-4)GlcNAc(b1-3)[Neu5Ac(a2-3)Gal(b1-4)GlcNAc(b1-6)]GalNAc
# Outline: as §1
# [8] = molecular target: Neu5Ac(a2-3)Gal(b1-4)GlcNAc(b1-6)GalNAc
# Outline: as §1
# [9] = molecular target: Neu5Ac(a2-3)Gal(b1-4)GlcNAc(b1-6)[Gal(b1-3)]GalNAc
# Outline: as §1
# [10] = molecular target: Neu5Ac(a2-3)Gal(b1-4)GlcNAc(b1-6)[Neu5Ac(a2-3)Gal(b1-3)]GalNAc
# Outline: as §1
# [11] = molecular target: Neu5Ac(a2-3)Gal(b1-4)GlcNAc6S
# Outline: as §1
# [12] = molecular target: Neu5Ac(a2-3)Gal(b1-4)[Fuc(a1-3)]GlcNAc
# Outline: as §1
# [13] = molecular target: Neu5Ac(a2-3)Gal(b1-4)[Fuc(a1-3)]GlcNAc(b1-2)Man
# Outline: as §1
# [14] = molecular target: Neu5Ac(a2-3)Gal(b1-4)[Fuc(a1-3)]GlcNAc(b1-3)Gal
# Outline: as §1
# [15] = molecular target: Neu5Ac(a2-3)Gal(b1-4)[Fuc(a1-3)]GlcNAc(b1-3)Gal(b1-4)GlcNAc
# Outline: as §1
# [16] = molecular target: Neu5Ac(a2-3)Gal(b1-4)[Fuc(a1-3)]GlcNAc(b1-3)Gal(b1-4)[Fuc(a1-3)]GlcNAc(b1-3)Gal(b1-4)[Fuc(a1-3)]GlcNAc
# Outline: as §1
# [17] = molecular target: Neu5Ac(a2-3)Gal(b1-4)[Fuc(a1-3)]GlcNAc(b1-3)GalNAc
# Outline: as §1
# [18] = molecular target: Neu5Ac(a2-3)Gal(b1-4)[Fuc(a1-3)]GlcNAc(b1-6)[Gal(b1-3)]GalNAc
# Outline: as §1
# [19] = molecular target: Neu5Ac(a2-3)Gal(b1-4)[Fuc(a1-3)]GlcNAc(b1-6)[Neu5Ac(a2-3)Gal(b1-3)]GalNAc
# Outline: as §1
# [20] = molecular target: Neu5Ac(a2-3)Gal(b1-4)[Fuc(a1-3)]GlcNAc6S
# Outline: as §1
# [21] = molecular target: Neu5Ac(a2-3)Gal6S(b1-4)GlcNAc
# Outline: as §1
# [22] = molecular target: Neu5Ac(a2-3)Gal6S(b1-4)[Fuc(a1-3)]GlcNAc
# Outline: as §1
# Neu5Ac(a2-3)GalNAc = molecular target: Neu5Ac(a2-3)GalNAc
# Outline: as §1
# [23] = molecular target: Neu5Ac(a2-3)GalNAc(b1-4)GlcNAc
# Outline: as §1
# [24] = molecular target: Neu5Ac(a2-3)[GalNAc(b1-4)]Gal(b1-4)Glc
# Outline: as §1
# [25] = molecular target: Neu5Ac(a2-3)[GalNAc(b1-4)]Gal(b1-4)GlcNAc
# Outline: as §1
# [26] = molecular target: Neu5Ac(a2-3)[GalNAc(b1-4)]Gal(b1-4)GlcNAc(b1-3)GalNAc
# Outline: as §1
# [27] = molecular target: Neu5Ac(a2-3)[Neu5Ac(a2-6)]GalNAc
# Outline: as §1
# Neu5Ac(a2-6)Gal = molecular target: Neu5Ac(a2-6)Gal
# Outline: as §1
# [28] = molecular target: Neu5Ac(a2-6)Gal(b1-3)GlcNAc(b1-3)[Gal(b1-4)GlcNAc(b1-6)]Gal(b1-4)Glc
# Outline: as §1
# Neu5Ac(a2-6)Gal(b1-4)Glc = molecular target: Neu5Ac(a2-6)Gal(b1-4)Glc
# Outline: as §1
# [29] = molecular target: Neu5Ac(a2-6)Gal(b1-4)GlcNAc
# Outline: as §1
# [30] = molecular target: Neu5Ac(a2-6)Gal(b1-4)GlcNAc(b1-2)Man
# Outline: as §1
# [31] = molecular target: Neu5Ac(a2-6)Gal(b1-4)GlcNAc(b1-2)Man(a1-3)Man(b1-4)GlcNAc(b1-4)GlcNAc
# Outline: as §1
# [32] = molecular target: Neu5Ac(a2-6)Gal(b1-4)GlcNAc(b1-2)Man(a1-3)[Gal(b1-4)GlcNAc(b1-2)Man(a1-6)]Man(b1-4)GlcNAc(b1-4)GlcNAc
# Outline: as §1
# [33] = molecular target: Neu5Ac(a2-6)Gal(b1-4)GlcNAc(b1-2)Man(a1-3)[GlcNAc(b1-2)Man(a1-6)]Man(b1-4)GlcNAc(b1-4)GlcNAc
# Outline: as §1
# [34] = molecular target: Neu5Ac(a2-6)Gal(b1-4)GlcNAc(b1-2)Man(a1-3)[GlcNAc(b1-2)Man(b1-4)GlcNAc(b1-2)Man(a1-6)]Man(b1-4)GlcNAc(b1-4)GlcNAc
# Outline: as §1
binder,measurement,setting,value
PpFlo1 (Pichia pastoris) (protein) MGSSHHHHHHSSGLVPRGSHMQESGDGDISDSAYACDIDATRYDGFNATIYEFQPGDGRLTRDPVFMSTGYLNRTQLHSITGVTDPGFSIYTPGVPTTTLYGIPNVNWENLLLELKGYFRAEVSGDYGLSLRNIDDSAILFFGKETAFQCCNENSISNEASTDYSLFTIFRQEGDETTNLDSFTYTQYLEAGKYYPVRTFFVNIERHAVFNFTMTLPDGTELTDFHNYIYQFGALDEEQCQA,glycan array binding signal (z-score),[1],0.469
same,glycan array binding signal (z-score),[2],-0.661
same,glycan array binding signal (z-score),[3],0.078
same,glycan array binding signal (z-score),[4],-0.458
same,glycan array binding signal (z-score),[5],-0.38
same,glycan array binding signal (z-score),[6],-0.337
same,glycan array binding signal (z-score),[7],-0.341
same,glycan array binding signal (z-score),[8],-0.453
same,glycan array binding signal (z-score),[9],-0.212
same,glycan array binding signal (z-score),[10],-0.337
same,glycan array binding signal (z-score),[11],-0.025
same,glycan array binding signal (z-score),[12],-0.403
same,glycan array binding signal (z-score),[13],-0.284
same,glycan array binding signal (z-score),[14],0.047
same,glycan array binding signal (z-score),[15],0.142
same,glycan array binding signal (z-score),[16],-0.141
same,glycan array binding signal (z-score),[17],0.976
same,glycan array binding signal (z-score),[18],1.03
same,glycan array binding signal (z-score),[19],-0.265
same,glycan array binding signal (z-score),[20],0.267
same,glycan array binding signal (z-score),[21],-0.584
same,glycan array binding signal (z-score),[22],0.016
same,glycan array binding signal (z-score),Neu5Ac(a2-3)GalNAc,-0.32
same,glycan array binding signal (z-score),[23],-0.165
same,glycan array binding signal (z-score),[24],-0.314
same,glycan array binding signal (z-score),[25],-0.179
same,glycan array binding signal (z-score),[26],0.445
same,glycan array binding signal (z-score),[27],0.292
same,glycan array binding signal (z-score),Neu5Ac(a2-6)Gal,-0.093
same,glycan array binding signal (z-score),[28],-0.237
same,glycan array binding signal (z-score),Neu5Ac(a2-6)Gal(b1-4)Glc,0.204
same,glycan array binding signal (z-score),[29],-0.057
same,glycan array binding signal (z-score),[30],-0.749
same,glycan array binding signal (z-score),[31],-0.078
same,glycan array binding signal (z-score),[32],0.28
same,glycan array binding signal (z-score),[33],-0.446
same,glycan array binding signal (z-score),[34],1.45
